{
  "source": "PubChem BioAssay AID485341",
  "about": "(National Center for Advancing Translational Sciences (NCATS), 2010)",
  "note": "Screen size: about 330,000 compounds; about 1,700 (0.52%) were called active. Inconclusive results, whose numbers are uncertain, are shown with a selection of clear calls. Calls follow the shape of the dose curve; as a rule, active = well fitted inhibition curve with a large enough effect; inconclusive = small, poorly fitted or top-dose-only effect; inactive = no such curve, though single readings can be large or run the other way. A potency beside an inconclusive call is a rough fit, not a confirmed value. Potency is read from the fitted curve at half-maximal effect; tags tell the direction and shape of the fitted curve.",
  "data": [
    {"molecular_target": "Beta-lactamase (Escherichia coli (strain K12)) (UniProt P00811)", "sequence (P00811 whole entry, looked up)": "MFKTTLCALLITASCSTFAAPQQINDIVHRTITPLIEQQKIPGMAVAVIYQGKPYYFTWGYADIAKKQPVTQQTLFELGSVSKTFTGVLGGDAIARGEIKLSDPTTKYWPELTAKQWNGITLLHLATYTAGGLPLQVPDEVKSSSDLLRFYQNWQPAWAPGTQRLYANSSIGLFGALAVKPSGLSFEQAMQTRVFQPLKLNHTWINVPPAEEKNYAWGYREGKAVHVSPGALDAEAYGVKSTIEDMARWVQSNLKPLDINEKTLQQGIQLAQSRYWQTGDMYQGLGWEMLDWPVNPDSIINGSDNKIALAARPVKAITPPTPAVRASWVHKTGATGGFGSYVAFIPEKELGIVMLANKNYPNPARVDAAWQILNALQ", "experiment": "qHTS Inhibitors of AmpC Beta-Lactamase (assay without detergent); also: nearly all actives have a fitted effect of over 20% in size;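 as to activity change, negative = inhibition: plate controls were no compound for no effect and no enzyme for full effect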", "conditions": "AmpC nitrocefin hydrolysis, absorbance 480 nm, 0.0001% Triton; activity change, negative = inhibition: at 57.1 µM (top of the series) unless noted", "outline": "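AmpC (5.3 nM in the dispensed reagent) in 20 mM phosphate pH 7.0 with 0.01% (detergent screen) or 0.0001% Triton X-100 was preincubated with compounds for 15 min at room temperature. Nitrocefin was then added from an 800 uM solution, and hydrolysis was followed at 480 nm.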", "values": [
      {"smiles": "O=C(CSc1nnc2c(n1)[nH]c1ccccc12)Nc1ccc2c(c1)OCO2", "Potency": "active: 8.91 µM"},
      {"smiles": "NC(=O)CSc1nnc(NC(=O)c2ccc(Br)o2)s1", "Potency": "inconclusive: 7.94 µM [inhibitor, full curve, poor fit]"},
      {"smiles": "Cc1cccc(C(=O)NNC(=O)C23CC4CC(CC(C4)C2)C3)c1O", "Potency": "inconclusive: 20 µM [inhibitor, partial curve, poor fit]"},
      {"smiles": "N#CC1(NC(=O)CN2C(=O)c3ccc([N+](=O)[O-])cc3C2=O)CCCCC1", "Potency": "inconclusive: 31.6 µM [inhibitor, single point]"},
      {"smiles": "Cc1ccc(S(=O)(=O)N2CCC(C(=O)OCC(=O)N3CCCCC3C)CC2)cc1C", "note": "(stereo unspecified)", "Potency": "inconclusive: 39.8 µM [inhibitor, single point]"},
      {"smiles": "C=CCn1c(-c2cc3c(s2)CCC(CC)C3)n[nH]c1=S", "note": "(stereo unspecified)", "Potency": "inconclusive: 7.08 µM [inhibitor, full curve, poor fit]"},
      {"smiles": "COc1ccccc1N(Cc1ccccc1)S(=O)(=O)c1cccc(C(=O)NC2CC(C)(C)NC(C)(C)C2)c1", "Potency": "inconclusive: 39.8 µM [inhibitor, single point]"},
      {"smiles": "Cc1cc(N/C=C/C(=O)c2cccc3ccccc23)no1", "activity change, negative = inhibition": "inactive: -13.7%"},
      {"smiles": "O=S(=O)(Nc1c(F)cccc1F)c1ccc(Cl)nc1", "Potency": "inconclusive: 25.1 µM [inhibitor, single point]"},
      {"smiles": "CCn1c(-c2ccco2)nc2ccccc21", "activity change, negative = inhibition": "inactive: -0.877%"},
      {"smiles": "COC(=O)c1ccc(C(=O)OC)c(NC(=O)CSCc2ccccc2Br)c1", "Potency": "inconclusive: 0.501 µM [inhibitor, partial curve, poor fit]"},
      {"smiles": "COc1ccc(CC(=O)Nc2cccc(C(=O)O)c2C)cc1", "Potency": "active: 3.98 µM"},
      {"smiles": "C=CCNC(=O)c1ccc(OC)cc1OC", "Potency": "inconclusive: 7.08 µM [inhibitor, partial curve, poor fit]"},
      {"smiles": "CC(=O)N1CCN=C1SCc1c(F)cccc1Cl", "Potency": "inconclusive: 2.82 µM [inhibitor, full curve, poor fit]"},
      {"smiles": "Cc1nc2cc(-c3ccccc3)nn2c(C)c1CCC(=O)NCc1ccco1", "activity change, negative = inhibition": "inactive: 145%"},
      {"smiles": "Cc1noc(C)c1COc1ccccc1C(=O)NCc1ccccc1Cl", "Potency": "inconclusive: 31.6 µM [inhibitor, single point]"},
      {"smiles": "C/C(Cl)=C/Cc1c(C)[nH]c2ccc(C)cc2c1=O", "activity change, negative = inhibition": "inactive: -34.2%"},
      {"smiles": "Cc1cc(N=NC(=O)c2ccccc2O)c2ccccc2c1O", "activity change, negative = inhibition": "inactive: -26.9%"},
      {"smiles": "CC(=O)c1sc2nc(C)cc(C)c2c1N", "Potency": "inconclusive: 6.31 µM [inhibitor, single point]"},
      {"smiles": "C/C(=N\\NC(=O)c1cccc(S(=O)(=O)N2CCCC2)c1)c1ccc(F)cc1", "Potency": "inconclusive: 39.8 µM [inhibitor, single point]"},
      {"smiles": "COc1ccc(OC)c(NC(=O)C2=C(C)NC(=O)NC2c2cccs2)c1", "note": "(stereo unspecified)", "Potency": "inconclusive: 15.8 µM [inhibitor, single point]"},
      {"smiles": "COc1ccc(Cl)cc1/C=C/c1ccc2cccc(O)c2n1", "activity change, negative = inhibition": "inactive: -51.8%"},
      {"smiles": "O=C1C=Cc2ccccc2C1=O", "Potency": "inconclusive: 28.2 µM [inhibitor, single point]"},
      {"smiles": "CCC(=O)N(Cc1ccc(S(N)(=O)=O)cc1)C1CC(=O)N(c2ccc(OC)cc2)C1=O", "note": "(stereo unspecified)", "Potency": "inconclusive: 6.31 µM [inhibitor, single point]"},
      {"smiles": "Cc1cccc(NS(=O)(=O)c2coc(C(N)=O)c2)c1C", "activity change, negative = inhibition": "inactive: -7.46%"},
      {"smiles": "CCc1nnc(NC(=O)c2cccc(OC)c2)s1", "Potency": "inconclusive: 3.98 µM [inhibitor, single point]"},
      {"smiles": "COc1ccc(C(=O)NCCS(=O)(=O)N(C)Cc2ccccc2)cc1", "Potency": "inconclusive: 35.5 µM [inhibitor, single point]"},
      {"smiles": "Cc1ccccc1OCC(=O)Nc1cccc(N(C)S(C)(=O)=O)c1", "Potency": "inconclusive: 5.01 µM [inhibitor, partial curve, poor fit]"},
      {"smiles": "O=C(NC1CC1)c1ccc(N2CCCCC2)c([N+](=O)[O-])c1", "activity change, negative = inhibition": "inactive: -12.3%"},
      {"smiles": "CC1Cc2nc(SCC(=O)Nc3ccc4c(c3)OCO4)n(CCc3ccccc3)c(=O)c2S1", "note": "(stereo unspecified)", "Potency": "inconclusive: 3.98 µM [inhibitor, single point]"},
      {"smiles": "Cc1ccccc1C(=O)Nc1cccc(-c2ccc(N3CCOCC3)nn2)c1", "Potency": "inconclusive: 39.8 µM [inhibitor, single point]"},
      {"smiles": "CCN(C(=O)COC(=O)c1cc(=O)c2ccccc2o1)c1c(N)n(Cc2ccccc2)c(=O)[nH]c1=O", "Potency": "inconclusive: 39.8 µM [inhibitor, single point]"},
      {"smiles": "CN1CCc2nc(N)c(C#N)c(-c3ccccc3)c2C1", "Potency": "inconclusive: 8.91 µM [inhibitor, single point]"},
      {"smiles": "CCN1C(=O)/C(=C2/C=CC=CN2C)OC1=S", "activity change, negative = inhibition": "inactive: -14.8%"},
      {"smiles": "O=C1NC(=Nc2ccc3ccccc3c2)S/C1=C/c1ccco1", "Potency": "active: 31.6 µM"},
      {"smiles": "CCCc1cc(=O)[nH]c(SCC(=O)Nc2ccc(C(=O)Nc3ccccc3OC)cc2)n1", "Potency": "inconclusive: 15.8 µM [inhibitor, partial curve]"},
      {"smiles": "Cc1ccc(Cn2cc(C(=O)c3ccc(F)cc3)c(=O)c3cc4c(cc32)OCCO4)cc1", "Potency": "inconclusive: 3.16 µM [inhibitor, single point]"},
      {"smiles": "CC(C)CN(CCCNC(=O)CC1Oc2ccccc2NC1=O)CC(C)C", "note": "(stereo unspecified)", "Potency": "inconclusive: 0.141 µM [inhibitor, full curve, poor fit]"},
      {"smiles": "COC(=O)Cc1ccc(NC(=S)N2CCCC(CO)C2)cc1", "note": "(stereo unspecified)", "activity change, negative = inhibition": "inactive: -0.047%"},
      {"smiles": "C=CCc1cccc2cc(C(=O)NC3=C(C#N)CCC3)c(=O)oc12", "Potency": "inconclusive: 5.01 µM [inhibitor, partial curve, poor fit]"},
      {"smiles": "Cc1cccc(Nc2nnc(SCC(=O)c3ccc(Br)s3)s2)c1C", "Potency": "inconclusive: 5.01 µM [inhibitor, full curve]"},
      {"smiles": "CCOC(=O)N1CCN(C(=O)C2CCC(=O)N(Cc3cccc(C(F)(F)F)c3)C2)CC1", "note": "(stereo unspecified)", "activity change, negative = inhibition": "inactive: 101%"},
      {"smiles": "COc1ccc(S(=O)(=O)Nc2cccnc2)c(C)c1C", "activity change, negative = inhibition": "inactive: -8.76%"},
      {"smiles": "Cc1ccc(-c2nn(CC(=O)NN3CCOCC3)c(=O)c3ccccc23)cc1", "activity change, negative = inhibition": "inactive: -0.391%"},
      {"smiles": "Cc1cc(C(=O)COC(=O)c2ccccc2NCCO)c(C)n1CC1CCCO1", "note": "(stereo unspecified)", "activity change, negative = inhibition": "inactive: 136%"},
      {"smiles": "Cc1ccc(-n2ncc3c(=O)n(CC(N)=O)cnc32)cc1C", "activity change, negative = inhibition": "inactive: 0.192%"},
      {"smiles": "C1=C(c2ccccc2)CCN(c2ncnc3nc[nH]c23)C1", "Potency": "inconclusive: 44.7 µM [inhibitor, partial curve, poor fit]"},
      {"smiles": "Cc1ccc(C)c(NC(=S)NCc2ccc3[nH]c4c(c3c2)CCCC4)c1", "Potency": "active: 35.5 µM"},
      {"smiles": "Clc1ccc(OCc2noc(-c3ccsc3)n2)c(Cl)c1", "Potency": "inconclusive: 35.5 µM [inhibitor, single point]"},
      {"smiles": "COc1ccc(N(CC(=O)Nc2ccc3c(c2)OCCO3)S(=O)(=O)c2cccnc2)cc1", "Potency": "active: 39.8 µM"},
      {"smiles": "Cc1ccc(O)c(-c2[nH]ncc2C(=O)c2ccc(Br)cc2)c1", "Potency": "active: 5.01 µM"},
      {"smiles": "CC1CCCCC1N1CCN(C(=O)c2cccc(F)c2)CC1", "note": "(stereo unspecified)", "Potency": "inconclusive: 6.31 µM [inhibitor, single point]"},
      {"smiles": "CN(C)c1ccc(C(=O)Nc2ccc(S(=O)(=O)Nc3nccs3)cc2)cc1", "Potency": "inconclusive: 25.1 µM [inhibitor, partial curve]"},
      {"smiles": "COc1cc(NS(=O)(=O)c2ccc(NC(=S)NC(=O)c3ccc(F)c(F)c3)cc2)nc(OC)n1", "Potency": "inconclusive: 14.1 µM [inhibitor, partial curve]"},
      {"smiles": "CCOC(=O)C1CN(S(=O)(=O)c2ccc(C)cc2)C1", "Potency": "inconclusive: 0.316 µM [inhibitor, full curve, poor fit]"},
      {"smiles": "CC1CN(C(=O)c2ccc(-c3cccc(C(F)(F)F)c3)o2)CC(C)O1", "note": "(stereo unspecified)", "activity change, negative = inhibition": "inactive: 111%"},
      {"smiles": "O=C(CSc1nc2ccccc2c(=O)[nH]1)NCc1ccc(Cl)cc1", "activity change, negative = inhibition": "inactive: -40.4%"},
      {"smiles": "COc1ccc(-n2nnnc2CNC(=O)C2CC(=O)N(c3ccc(Cl)cc3)C2)cc1", "note": "(stereo unspecified)", "Potency": "inconclusive: 39.8 µM [inhibitor, single point]"},
      {"smiles": "O=C1CS/C(=N\\C(=O)N2c3ccccc3Sc3ccccc32)N1", "Potency": "inconclusive: 3.98 µM [inhibitor, single point]"},
      {"smiles": "Cc1ccc(NC(=O)CC(=O)c2ccc([N+](=O)[O-])cc2)cc1S(=O)(=O)Nc1cccc(Cl)c1", "Potency": "inconclusive: 7.08 µM [inhibitor, full curve, poor fit]"},
      {"smiles": "S=C(Nc1ccc(Cl)cc1Cl)Nc1ccccc1Oc1ccccc1", "Potency": "inconclusive: 12.6 µM [inhibitor, partial curve]"},
      {"smiles": "Cc1ccc(C(=O)N/C(=C\\c2ccc(-c3ccccc3[N+](=O)[O-])o2)C(=O)NCCCN(C)C)cc1", "activity change, negative = inhibition": "inactive: 62.4%"},
      {"smiles": "O=C(Cn1cc2c(n1)CCCC2)Nc1ccccc1Cl", "Potency": "inconclusive: 100 µM [inhibitor, partial curve, poor fit]"},
      {"smiles": "O=C1NC(=O)N(c2cccc(Br)c2)C(=O)/C1=C/c1ccsc1", "Potency": "inconclusive: 25.1 µM [inhibitor, partial curve]"},
      {"smiles": "Cc1ccc(C)c(NC(=O)CSc2nnc(CSc3nc(C)cc(C)n3)n2Cc2ccco2)c1", "activity change, negative = inhibition": "inactive: 60.1%"},
      {"smiles": "COc1ccc2[nH]c(=O)c(CN(Cc3cccs3)Cc3nnnn3Cc3ccccc3)cc2c1", "activity change, negative = inhibition": "inactive: 17.4%"},
      {"smiles": "O=C1CCC/C(=N/NC(=O)c2ccc(NS(=O)(=O)c3cccs3)cc2)C1", "Potency": "inconclusive: 28.2 µM [inhibitor, partial curve]"},
      {"smiles": "O=C(CN1C(=O)CC(c2ccccc2)Sc2ccccc21)NCC1CCCO1", "note": "(stereo unspecified)", "activity change, negative = inhibition": "inactive: 37.7%"},
      {"smiles": "Cc1nn(-c2cc(Cl)ccc2N)c(=O)c2ccccc12", "Potency": "inconclusive: 6.31 µM [inhibitor, single point]"},
      {"smiles": "CCN(c1ccccc1)S(=O)(=O)c1cc(NC(=O)CSc2n[nH]c(=O)[nH]c2=O)ccc1Cl", "Potency": "active: 20 µM"},
      {"smiles": "C=CCN1C(=O)C(O)(CC(=O)c2ccc(OC)cc2OC)c2cc(Br)ccc21", "note": "(stereo unspecified)", "Potency": "inconclusive: 3.98 µM [inhibitor, single point]"}
    ]}
  ]
}
